About 64,000 (15%) of roughly 420,000 compounds were called active. Inconclusive results, whose numbers are uncertain, are shown with a selection of clear calls. Calls come from the whole dose curve; as a rule, active = well fitted inhibition curve with a large enough effect; inconclusive = small, poorly fitted or top-dose-only effect; inactive = flat fitted curve, though single readings scatter. Potencies of inconclusive entries are left out as doubtful fits.
Test: qHTS for Inhibitors of human tyrosyl-DNA phosphodiesterase 1 (TDP1): qHTS in cells in absence of CPT; note: nearly all actives have a fitted effect of over 55% in size
Details: DT40 Tdp1-/- hTDP1 cells, no CPT, ATP luminescence, 48 h; activity change, negative = growth inhibition: at 46.2 µM (top of the series) unless noted
How it was run: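 Camptothecin absent (DMSO only). Human TDP1-complemented DT40 knockout cells, 400 cells/well, 37 °C for minimum 48 hr; ATP measured via CellTiter-Glo, 30 min dark incubation, luminescence.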
% is set by controls: 0 for no effect and ±100 for the full control effect; potency is the fitted concentration of half-maximal effect; tags give direction and shape of the fitted curve.

Row | SMILES | Potency | activity change, negative = growth inhibition
1 | COc1ccc(Nc2nc(N3CCCC3)c3ccccc3n2)cc1 | active: 3.26 µM | 
2 | CCc1nc2ccc(C(=O)NCCOc3ccc(OC)cc3)cn2c1N(CC)Cc1ccc(OC)c(OC)c1 | active: 20.6 µM | 
3 | C[C@H](CO)N1C[C@H](C)[C@@H](CN(C)C(=O)Nc2ccccc2)Oc2ccc(NC(=O)Nc3ccc(C(F)(F)F)cc3)cc2C1=O | inconclusive [inhibitor, single point] | 
4 | O=C(CCCNC(=O)c1ccc(Cl)cc1)NCc1ccccc1F | inactive | 
5 | Cc1c(Cl)c(=O)oc2cc(OCC(=O)N3CCCC(C)C3)ccc12 (stereo unspecified) | inconclusive [inhibitor, single point] | 
6 | CCOc1cc(/C=C2\SC(=O)N(CC(=O)Nc3ccccc3F)C2=O)cc([N+](=O)[O-])c1O | active: 20.6 µM | 
7 | CCCc1nc(SCC(=O)Nc2ccccc2OC)c2c(=O)n(C)c(=O)n(C)c2n1 | active: 23.1 µM | 
8 | Cc1cc(Br)ccc1NC(=O)CSCc1c(C)noc1C | inactive | 
9 | C=CCOC(=O)C1=C(C)Nc2ncnn2C1c1cc(Br)ccc1F (stereo unspecified) | inconclusive [inhibitor, single point] | 
10 | Cc1ccc(NC(=O)CCCc2nnc3n(C)c(=O)c4sccc4n23)cc1C | inconclusive [inhibitor, single point] | 
11 | Cc1ccc(NC(=O)c2nc(S(C)(=O)=O)ncc2N(Cc2cccc(F)c2)Cc2ccco2)cc1C | inconclusive [inhibitor, single point] | 
12 | COc1ccccc1NS(=O)(=O)c1ccc2c(c1)N(C(C)=O)CC(C)S2 (stereo unspecified) | inconclusive [inhibitor, partial curve, poor fit] | 
13 | Cc1ccsc1/C=C(\C#N)C(=O)Nc1c(C)n(C)n(-c2ccccc2)c1=O | inactive | 
14 | CCOCCC(=O)Nc1nnc(CCc2ccccc2)s1 | inactive | 
15 | COCCCNC(=O)Cc1c(C)c2c(cc(C)c3c(C(C)(C)C)coc32)oc1=O | active: 1.3 µM | 
16 | Cc1cccc(NC(=O)c2c(C)nc3ccccn23)c1 | inactive | 
17 | O=C(O)c1ccc(CNC(=O)C2CCCN2C(=O)OCc2ccccc2)cc1 (stereo unspecified) | inactive | 
18 | CCn1c(SCC(=O)Nc2ccc(OC)c(OC)c2)nnc1-c1ccco1 |  | inconclusive: -31.9% [inhibitor]
19 | O=C1C2C(c3ccccc3)CC=CC2[C@H](c2ccoc2)N1Cc1ccccc1 (stereo partly specified) | inconclusive [inhibitor, single point] | 
20 | CCOc1ccc2[nH]c3ncccc3c(=O)c2c1 | inconclusive [inhibitor, partial curve] | 
21 | Cc1nnc(SCC2CCCO2)n1-c1ccccc1 (stereo unspecified) | inactive | 
